Results reported in publication PMC6556554, “The Molecular Basis for Apolipoprotein E4 as the Major Risk Factor for Late-Onset Alzheimer's Disease” (Journal of Molecular Biology, 2019).

Molecular target: the molecule itself
Assay: SEC + SEC-MALS; gel filtration on HiLoad Superdex 26/600 200 pg in 20 mM Hepes, 300 mM NaCl, 10% glycerol pH 8.0; SEC-MALS at 5 mg/mL in 20 mM Hepes, 300 mM NaCl, 1 mM TCEP pH 8.0, RT, Shodex Kw-403 column; oligomer in solution

B1: Apolipoprotein E2 (natural protein)
chain: not shown
notes: Human apolipoprotein E, isoform E2 (cysteine at 112 and at 158); made from the codon-optimized ApoE4 gene by site-directed mutagenesis; Tags were cleaved on column with PreScission (HRV 3C site); residues of the site may be left at the N-terminus; Cloning details are in the supplementary information; also called ApoE2; source: E. coli Rosetta2(DE3), purified (Talon beads, HiTrap heparin, Superdex …)
stoichiometry N: 4
